# Source: PubChem BioAssay AID1645886 (National Center for Advancing Translational Sciences (NCATS), 2021)
# “And” between values parts separate entries of the source, which are not always exact repeats. Equal entries are not always repeated. Out of some 16,000 compounds screened, about 260 (1.6%) were called active. The shares of active, inactive and inconclusive entries below differ from those in the screen. Calls come from the whole dose curve; as a rule, active = well fitted inhibition curve with a large enough effect; inconclusive = small, poorly fitted or top-dose-only effect; inactive = no such curve, though single readings can be large or run the other way. Potencies of inconclusive entries are doubtful fits and often do not repeat.
# Target: Rap guanine nucleotide exchange factor 4 (Homo sapiens) (UniProt Q8WZA2)
# Assay: Validation qHTS for antagonist of cAMP-regulated guanine nucleotide exchange factor 4 (EPAC2); note: nearly all actives have a fitted effect of over 40% in size;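 for activity, negative = inhibition: 100% = activation by cAMP agonist control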
# Conditions: EPAC2 Rap1B BODIPY-GDP exchange, fluorescence; activity, negative = inhibition: at 112 µM (top of the series)
# Outline: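 Fluorescent exchange read-out: 100 nM EPAC2 with 250 nM RAP1B–BODIPY-GDP and 50 uM GDP; BODIPY-GDP release lowers fluorescence. Read at 480/540 nm every 5 min for 30 min at room temperature; normalized to 6.5 mM cAMP.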
# Potency is the fitted concentration of half-maximal effect; tags give direction and shape of the fitted curve.
# UniProt Q8WZA2, sequence (Q8WZA2 whole entry, looked up): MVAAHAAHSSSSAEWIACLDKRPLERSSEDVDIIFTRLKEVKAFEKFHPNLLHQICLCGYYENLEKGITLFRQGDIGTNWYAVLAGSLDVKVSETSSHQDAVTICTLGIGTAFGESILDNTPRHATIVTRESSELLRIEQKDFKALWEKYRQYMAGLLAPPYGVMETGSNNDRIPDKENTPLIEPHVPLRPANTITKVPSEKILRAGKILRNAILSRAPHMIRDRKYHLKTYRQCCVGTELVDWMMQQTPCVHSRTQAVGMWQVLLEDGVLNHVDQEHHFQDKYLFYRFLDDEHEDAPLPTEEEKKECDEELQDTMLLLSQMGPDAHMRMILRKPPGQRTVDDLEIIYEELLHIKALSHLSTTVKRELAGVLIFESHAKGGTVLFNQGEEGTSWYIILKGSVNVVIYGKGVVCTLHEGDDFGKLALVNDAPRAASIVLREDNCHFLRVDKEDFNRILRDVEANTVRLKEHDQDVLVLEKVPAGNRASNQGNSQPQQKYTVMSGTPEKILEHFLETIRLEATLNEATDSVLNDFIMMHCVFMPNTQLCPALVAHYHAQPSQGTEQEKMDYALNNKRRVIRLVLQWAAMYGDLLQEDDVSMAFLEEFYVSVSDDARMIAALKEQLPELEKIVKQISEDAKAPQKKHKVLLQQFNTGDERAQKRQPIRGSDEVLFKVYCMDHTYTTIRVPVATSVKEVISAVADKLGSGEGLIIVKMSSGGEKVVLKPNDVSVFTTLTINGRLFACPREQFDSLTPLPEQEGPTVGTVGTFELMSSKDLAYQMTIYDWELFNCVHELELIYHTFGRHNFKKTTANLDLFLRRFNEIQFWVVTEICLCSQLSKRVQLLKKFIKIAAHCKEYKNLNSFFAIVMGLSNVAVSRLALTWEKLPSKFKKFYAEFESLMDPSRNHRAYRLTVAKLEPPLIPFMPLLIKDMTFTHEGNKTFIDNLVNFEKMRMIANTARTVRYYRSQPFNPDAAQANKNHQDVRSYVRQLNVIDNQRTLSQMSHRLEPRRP
Structure (SMILES),Potency,"activity, negative = inhibition"
CCOP(=S)(OCC)Oc1nc(Cl)c(Cl)cc1Cl,"inconclusive: 44.7 µM [inhibitor, partial curve]",–
CN[C@H]1C[C@@H](N)[C@H](O)[C@@H](O[C@@H]2O[C@H](CO)[C@H](O)[C@@H]3OC4(O[C@H]23)O[C@H](C(N)CO)[C@H](O)[C@H](O)[C@H]4O)[C@@H]1O (stereo partly drawn),inactive,–
C=C(C)C1Cc2c(ccc3c2OC2COc4cc(OC)c(OC)cc4C2C3=O)O1 (stereo not drawn),"inconclusive: 12.6 µM [inhibitor, partial curve, poor fit]",–
CCCCCCCCCCCCCCCC[n+]1ccccc1,"inconclusive: 10 µM [inhibitor, full curve]",–
CC1(C)CC/C(=C/c2ccc(Cl)cc2)C1(O)Cn1cncn1 (stereo not drawn),"inconclusive: 2.24 µM [inhibitor, full curve, poor fit]",–
COc1ccc2c(c1OC)C(=O)O[C@H]2[C@@H]1c2cc3c(cc2CCN1C)OCO3,"inconclusive: 39.8 µM [inhibitor, single point]",–
CCCCCCCCCC(CC)c1ccc(S(=O)(=O)O)cc1 (stereo not drawn),"inconclusive: 31.6 nM [inhibitor, full curve, poor fit] and active: 56.2 µM",–
CC(C)(C)CC(C)(C)c1ccc(O)cc1,active: 28.2 µM and active: 56.2 µM,–
CNc1ccc2oc(C[C@@H]3OC4(CC[C@@H]3C)O[C@H]([C@@H](C)C(=O)c3ccc[nH]3)[C@H](C)C[C@H]4C)nc2c1C(=O)O (stereo partly drawn),"inconclusive: 79.4 µM [inhibitor, single point]",–
CCC1/C=C/C=CCC(C)C(O)[C@@](C)(O)C(=O)C(C)C(O)C(C)C(=O)C(C)C(O)C(C)C=CC(=O)O[C@H]2C(C)C(CC1)O[C@]1(CCC(C)C(CC(C)O)O1)C2C (stereo partly drawn),"inconclusive: 25.1 µM [inhibitor, partial curve]",–
C(=C\c1ccccc1)/CN1CCN(CCOC(c2ccccc2)c2ccccc2)CC1,"inconclusive: 25.1 µM [inhibitor, full curve, poor fit]",–
N#C/C(=C\c1ccc(O)c(O)c1)C(N)=S,"inconclusive: 79.4 µM [inhibitor, partial curve] and inactive",–
c1ccc2sc(C3(N4CCCCC4)CCCCC3)cc2c1,"inconclusive: 44.7 µM [inhibitor, partial curve, poor fit]",inconclusive: -30.3% [inhibitor]
C[C@H]1CC[C@]2(NC1)O[C@H]1C[C@H]3[C@@H]4CC[C@H]5C[C@@H](O[C@@H]6O[C@H](CO)[C@H](O[C@@H]7O[C@H](CO)[C@@H](O)[C@H](O[C@@H]8OC[C@@H](O)[C@H](O)[C@H]8O)[C@H]7O[C@@H]7O[C@H](CO)[C@@H](O)[C@H](O)[C@H]7O)[C@H](O)[C@H]6O)CC[C@]5(C)[C@H]4CC[C@]3(C)[C@H]1[C@@H]2C,–,inactive: -3.97%
c1csc(CN2CC[C@@]3(CCCNC3)C2)n1,"inconclusive: 10 µM [inhibitor, partial curve, poor fit]",–
O=C1C(Cl)=C(Cl)C(=O)C(Cl)=C1Cl,"inconclusive: 79.4 µM [inhibitor, partial curve, poor fit]",–
CN1C2CCC1CC(OC(=O)C1CCC(C(=O)OC3CC4CCC(C3)N4C)(c3ccccc3)c3ccccc31)C2 (stereo not drawn),"inconclusive: 39.8 µM [inhibitor, single point]",–
Clc1ccc(COC(Cn2ccnc2)c2ccc(Cl)cc2Cl)c(Cl)c1 (stereo not drawn),"inconclusive: 14.1 µM [inhibitor, partial curve] and inconclusive: 39.8 µM [inhibitor, partial curve]",–
CO[C@]12CC[C@@]3(C[C@@H]1[C@](C)(O)C(C)(C)C)[C@@H]1Cc4ccc(O)c5c4[C@@]3(CCN1CC1CC1)[C@H]2O5,"inconclusive: 141 µM [inhibitor, single point]",–

Structure (SMILES),Potency,"activity, negative = inhibition"
CNC(=O)N(C)c1nnc(C(C)(C)C)s1,"inconclusive: 15.8 µM [inhibitor, partial curve, poor fit]",–
N#CC(C#N)=NNc1ccc(OC(F)(F)F)cc1,active: 39.8 µM,–
OC[C@@H](O)[C@H]1O[C@@H]2O[C@@H](C(Cl)(Cl)Cl)O[C@@H]2[C@H]1O,–,inactive: -22.8%
C=C1C([C@@]2(C)C(OC(C)=O)CC(=O)O[C@@](C)(COC(C)=O)C2CC(=O)OC)C(OC=O)C(OC(=O)C(OC(C)=O)C(C)CC)[C@]2(C)C(c3ccoc3)CC(=O)C12O (stereo partly drawn),"inconclusive: 22.4 µM [inhibitor, full curve]",–
NC(=O)OCCCc1ccccc1,"inconclusive: 2 µM [inhibitor, full curve, poor fit]",–
CC(=O)OC1C2C(OC(=O)Cc3ccccc3)C(C)CC2(OC(C)=O)C(=O)/C(C)=C/C2C(CC[C@@]13CO3)C2(C)C (stereo partly drawn),"inconclusive: 50.1 µM [inhibitor, partial curve, poor fit]",–
Clc1ccc(C(c2ccc(Cl)cc2)C(Cl)(Cl)Cl)cc1,"inconclusive: 14.1 µM [inhibitor, partial curve, poor fit]",–
Cc1cccc(C(C)c2cnc[nH]2)c1C (stereo not drawn),"inconclusive: 56.2 µM [inhibitor, partial curve]",–
NN=C(N)N,"inconclusive: 39.8 µM [inhibitor, single point]",–
NCC[C@H](O)C(=O)N[C@@H]1C[C@H](N)[C@@H](O[C@H]2O[C@H](CN)[C@@H](O)[C@H](O)[C@H]2N)[C@H](O[C@@H]2O[C@H](CO)[C@@H](O)[C@H]2O)[C@H]1O,–,inactive: 6.92% [at 56.6 µM]
CC(C)c1ccc2c(c1O)CCC1C3=C(CC[C@]21C)C(=O)OC3 (stereo partly drawn),"inconclusive: 35.5 µM [inhibitor, partial curve, poor fit]",–
CC(C)(c1ccc(OC[C@@H]2CO2)cc1)c1ccc(OC[C@H]2CO2)cc1,"inconclusive: 50.1 µM [inhibitor, partial curve]",–
CCCCCCCCCCCC[N+](C)(C)CCOc1ccccc1,"inconclusive: 0.141 µM [inhibitor, full curve, poor fit]",–
O=C(Nc1ccccc1-c1ccc(Cl)cc1)c1cccnc1Cl,active: 8.91 µM,–
CC(=O)NCCc1c[nH]c2ccccc12,"inconclusive: 100 µM [inhibitor, partial curve, poor fit]",–
O=C1Nc2ccc(Cl)cc2C(c2ccccc2)=NC1O (stereo not drawn),"inconclusive: 562 nM [inhibitor, full curve, poor fit] and inactive",–
CCC(C)C(=O)OC1C[C@@]2(C)C(c3ccoc3)OC(=O)CC23OC2(C)OC34C(OC(=O)C(C)C)[C@]3(O)C(OC(=O)C5(C)OC5C)[C@]5(C)CC3(O)[C@](C)(C5CC(=O)OC)C14O2 (stereo partly drawn),"inconclusive: 1.12 µM [inhibitor, full curve, poor fit]",–
CN1CCCC2(CCN(C(=O)c3csnn3)CC2)C1,–,inactive: -13%
C=CCC1([C@H](C)CCC)C(=O)NC(=O)NC1=O,"inconclusive: 89.1 µM [inhibitor, single point]",–

Structure (SMILES),Potency,"activity, negative = inhibition"
NC[C@H](CS(=O)(=O)O)c1ccc(Cl)cc1,–,inactive: -16.6%
O=C(CCCN1CCC2(CC1)C(=O)N(Cc1cccc(F)c1)CN2c1ccccc1)c1ccc(F)cc1,"inconclusive: 50.1 µM [inhibitor, partial curve, poor fit]",–
CCCCCCCCC(=O)NCc1ccc(O)c(OC)c1,"inconclusive: 8.91 µM [inhibitor, partial curve] and inconclusive: 63.1 µM [inhibitor, partial curve, poor fit]",–
Cc1ccc(C(=O)CN2CCOCC2)cc1,"inconclusive: 1.78 µM [inhibitor, partial curve, poor fit]",–
C[C@@]12CCC3C(CCC4=CC(=O)CC[C@]43C)C1CCC2O (stereo partly drawn),"inconclusive: 44.7 µM [inhibitor, partial curve]",–
CCOP(=O)(NC(C)C)Oc1ccc(SC)c(C)c1 (stereo not drawn),active: 50.1 µM,–
CCCn1c(C)c(C(=O)c2ccc3ccccc3c2)c2ccccc21,"inconclusive: 11.2 µM [inhibitor, full curve]",–
c1ccc(N2CC3(CCNCC3)C2)nc1,"inconclusive: 20 µM [inhibitor, full curve, poor fit]",–
c1ccc(CCCN2CCN(CCOC(c3ccccc3)c3ccccc3)CC2)cc1,"inconclusive: 50.1 µM [inhibitor, partial curve]",–
CCCN(CCC)c1c([N+](=O)[O-])cc(S(N)(=O)=O)cc1[N+](=O)[O-],active: 39.8 µM,–
CNC(C)CC1CCCCC1 (stereo not drawn),"inconclusive: 28.2 µM [inhibitor, single point]",–
CCC(OC(C)=O)C(CC(C)NC)(c1ccccc1)c1ccccc1 (stereo not drawn),–,inactive: -4.6% [at 239 µM]
CCCCCc1cc(O)c2c(c1)OC(C)(C)[C@@H]1CCC(C)=C[C@@H]21,"inconclusive: 10 µM [inhibitor, full curve]",–
O=C(Nc1cccc(F)c1)N1CCCC2(CCN(C(=O)Oc3ccccc3)CC2)C1,"inconclusive: 50.1 µM [inhibitor, partial curve, poor fit]",–
ClCCN(CCCl)/C(=C\c1ccccc1)c1ccnc2ccccc12,–,inactive: 37.7%
C[C@]12CCC(=O)C(O)=C1CC[C@@H]1[C@@H]2CC[C@]2(C)C(=O)CC[C@@H]12,–,inactive: -17.8%
CN1Cc2c(ccc3c2OCO3)C2C(O)Cc3cc4c(cc3C21)OCO4 (stereo not drawn),inactive,–
c1ccc(C2CC2)c(OCC2=NCCN2)c1,"inconclusive: 126 µM [inhibitor, partial curve]",–
CN1CC[C@@]2(CCCN(C(=O)c3csnn3)C2)C1,"inconclusive: 0.891 µM [inhibitor, full curve, poor fit]",–
